Sequences with one replicate were seen in a single cluster, so their values are uncertain.
What follows are sequences tested on ATP (assay: switch fluorescence ratio, 500 uM ATP over buffer (Cy3 cluster intensity, sum of 5 cycles each) (fold (ratio)); higher = stronger signal-on switching upon ATP binding; sequences stand for … in TCGTCGGCAGCGTCAGATGTGTATAAGAGACAGTTTTTTTTTTTTTTTTTTTTTTTTT…TC). Conditions: aptamer strand: ATP DNA aptamer (quencher-CACCTGGGGGAGTATTGCGGAGGAAGG + anchor), 100 nM annealed; ATP concentration: 500 uM; one replicate.
Procedure, shortened: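 For every switch-domain sequence, the fluorescence ratio is the mean of per-cluster values, each being summed target-cycle Cy3 intensity over summed buffer-cycle Cy3 intensity. Clusters outside 100-1000 RFU were excluded. On a modified Illumina MiSeq flow-cell, the Cy3-labelled switching-strand clusters were annealed to 100 nM quencher-labelled ATP aptamer, imaged in selection buffer and then after 15 min with 500 uM ATP at 22 °C. Five such cycles were run, with NaOH stripping and re-annealing between them.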
For TGCCGGGTCC, the switch fluorescence ratio was 0.98. In the case of TGCCGTGTTG, the switch fluorescence ratio is reported as 1.06. For TGCCGTTGGG, the switch fluorescence ratio was 1.01. TGCCTCGGGT was tested, and the switch fluorescence ratio was 1.02. With TGCCTCTGAC the switch fluorescence ratio was 1.07. Sequence TGCCTGACAC has a switch fluorescence ratio of 1.05. TGCCTGTGAG was tested, and the switch fluorescence ratio was 0.992. TGCCTTATGA showed a switch fluorescence ratio of 1.05. TGCCTTCACG gave a switch fluorescence ratio of 1.17. TGCCTTGCGG was tested, and the switch fluorescence ratio was 1.01. TGCCTTGTTC was tested, and the switch fluorescence ratio was 0.99. With TGCCTTTGGG the switch fluorescence ratio was 1.02. TGCGAAATTA showed a switch fluorescence ratio of 0.992. TGCGACCATA was tested, and the switch fluorescence ratio was 1.11. TGCGACCTCT showed a switch fluorescence ratio of 0.93. TGCGACGGGC was tested, and the switch fluorescence ratio was 1.15. Sequence TGCGATACCG has a switch fluorescence ratio of 1.14. In the case of TGCGATAGGG, the switch fluorescence ratio is reported as 1.03. TGCGATCTTT was tested, and the switch fluorescence ratio was 1. Work on TGCGATTTCC yielded a switch fluorescence ratio of 1.08. TGCGCAAAGC was tested, and the switch fluorescence ratio was 1.25. TGCGCATTTT gave a switch fluorescence ratio of 1.56. In the case of TGCGCCGGTT, the switch fluorescence ratio is reported as 1.01. TGCGCCGTAG was tested, and the switch fluorescence ratio was 0.991. Work on TGCGCGCAGC yielded a switch fluorescence ratio of 0.989. TGCGCGCTAC gave a switch fluorescence ratio of 1.38. TGCGCTGA was tested, and the switch fluorescence ratio was 1.06. TGCGGATAGC showed a switch fluorescence ratio of 1.04. TGCGGATTTA gave a switch fluorescence ratio of 0.964. Work on TGCGGCTACT yielded a switch fluorescence ratio of 1.03. TGCGGCTTTG showed a switch fluorescence ratio of 0.992. TGCGGGACGA showed a switch fluorescence ratio of 1.02. TGCGGGCTGG was tested, and the switch fluorescence ratio was 1.01. Work on TGCGGGTCA yielded a switch fluorescence ratio of 0.977. For TGCGGTTAAA, the switch fluorescence ratio was 0.997. With TGCGTAACGA the switch fluorescence ratio was 0.992. For TGCGTACTTG, the switch fluorescence ratio was 0.952. TGCGTAGATT showed a switch fluorescence ratio of 1.04. Work on TGCGTATAAT yielded a switch fluorescence ratio of 0.921. TGCGTATATA gave a switch fluorescence ratio of 0.995. Sequence TGCGTATCAT has a switch fluorescence ratio of 1.03. With TGCGTATTAC the switch fluorescence ratio was 1.88. With TGCGTCAAAC the switch fluorescence ratio was 1.29. TGCGTCTTAA showed a switch fluorescence ratio of 1.04. With TGCGTGATCA the switch fluorescence ratio was 0.993. With TGCTAAACGA the switch fluorescence ratio was 1.05. TGCTACGTGT showed a switch fluorescence ratio of 1. In the case of TGCTAGCGCT, the switch fluorescence ratio is reported as 0.967. TGCTAGGACA was tested, and the switch fluorescence ratio was 1.05. TGCTAGTGCT gave a switch fluorescence ratio of 0.94. TGCTAGTTTG showed a switch fluorescence ratio of 1.03. For TGCTATGTAC, the switch fluorescence ratio was 1.19. With TGCTCACTTT the switch fluorescence ratio was 0.994. Sequence TGCTCATATT has a switch fluorescence ratio of 0.973. TGCTCCATCT was tested, and the switch fluorescence ratio was 1.03. TGCTCCCGTG showed a switch fluorescence ratio of 1.27. Sequence TGCTCGCTCA has a switch fluorescence ratio of 1.01. TGCTCGGCAT was tested, and the switch fluorescence ratio was 1.44. Work on TGCTCGGCCT yielded a switch fluorescence ratio of 1.02. Work on TGCTCGTCGG yielded a switch fluorescence ratio of 1. With TGCTCTCACT the switch fluorescence ratio was 1.03. Sequence TGCTCTGCTT has a switch fluorescence ratio of 1.04. Work on TGCTGATCA yielded a switch fluorescence ratio of 0.957. In the case of TGCTGATGGA, the switch fluorescence ratio is reported as 0.965. TGCTGGAATA gave a switch fluorescence ratio of 0.983. With TGCTGGATAC the switch fluorescence ratio was 1.19. In the case of TGCTGTTCAG, the switch fluorescence ratio is reported as 0.998. TGCTTAGGGG was tested, and the switch fluorescence ratio was 0.971. Sequence TGCTTATACG has a switch fluorescence ratio of 1.04. TGCTTATAT gave a switch fluorescence ratio of 1.03. TGCTTCAAGA was tested, and the switch fluorescence ratio was 0.967. TGCTTCCTGG was tested, and the switch fluorescence ratio was 1.11. TGCTTCGACC was tested, and the switch fluorescence ratio was 1.12. For TGCTTGGTCA, the switch fluorescence ratio was 0.978. With TGCTTGTCAG the switch fluorescence ratio was 0.976. TGCTTTGTGG gave a switch fluorescence ratio of 0.956. Sequence TGGAAAGCAG has a switch fluorescence ratio of 0.971. Sequence TGGAAATCTT has a switch fluorescence ratio of 1.01. With TGGAAGAACA the switch fluorescence ratio was 1.03. With TGGAAGCCTA the switch fluorescence ratio was 1.09. In the case of TGGAAGCTAT, the switch fluorescence ratio is reported as 1.02. With TGGAAGTCGA the switch fluorescence ratio was 0.95. For TGGAATATTA, the switch fluorescence ratio was 0.971. Work on TGGACAAGAG yielded a switch fluorescence ratio of 0.974. For TGGACAAGGA, the switch fluorescence ratio was 1.02. For TGGACACCC, the switch fluorescence ratio was 0.989. Work on TGGACAGCAA yielded a switch fluorescence ratio of 2.21. TGGACCTTCG gave a switch fluorescence ratio of 1.19. TGGACGTCAT was tested, and the switch fluorescence ratio was 1.03. TGGACTGGG was tested, and the switch fluorescence ratio was 0.99. Work on TGGACTTAGC yielded a switch fluorescence ratio of 0.988. Sequence TGGACTTAGT has a switch fluorescence ratio of 1. In the case of TGGACTTTCG, the switch fluorescence ratio is reported as 0.933. Work on TGGAGACAGG yielded a switch fluorescence ratio of 1.1. Sequence TGGAGCGCAC has a switch fluorescence ratio of 1.6. For TGGAGGATGG, the switch fluorescence ratio was 0.971. TGGAGTAATC showed a switch fluorescence ratio of 2.09. With TGGAGTCCCG the switch fluorescence ratio was 0.966. In the case of TGGAGTTGAC, the switch fluorescence ratio is reported as 1.01. With TGGATAACG the switch fluorescence ratio was 0.967. Sequence TGGATAAGAC has a switch fluorescence ratio of 1.05. For TGGATACCGT, the switch fluorescence ratio was 0.997. TGGATCAGCG gave a switch fluorescence ratio of 1.01. With TGGATCCACA the switch fluorescence ratio was 1.01. Sequence TGGATCTAAG has a switch fluorescence ratio of 0.98. With TGGATGAT the switch fluorescence ratio was 0.987. Sequence TGGATGCCAA has a switch fluorescence ratio of 0.981. TGGATGGGG gave a switch fluorescence ratio of 0.983. TGGATGTAAG was tested, and the switch fluorescence ratio was 1.02. With TGGATGTAG the switch fluorescence ratio was 0.993. Sequence TGGATGTAT has a switch fluorescence ratio of 0.978. Sequence TGGATTGAGT has a switch fluorescence ratio of 1. Sequence TGGATTGGT has a switch fluorescence ratio of 0.989. Work on TGGCAAAACT yielded a switch fluorescence ratio of 2.61. TGGCAAGGAG showed a switch fluorescence ratio of 0.97. TGGCACAGTC showed a switch fluorescence ratio of 1. With TGGCACATTA the switch fluorescence ratio was 1.02. Work on TGGCATATGA yielded a switch fluorescence ratio of 1.05. In the case of TGGCCAAAG, the switch fluorescence ratio is reported as 1.01. In the case of TGGCCAATTA, the switch fluorescence ratio is reported as 1.06. With TGGCCAGGGC the switch fluorescence ratio was 0.999. TGGCCGCAAT gave a switch fluorescence ratio of 0.991. Sequence TGGCCGGGTA has a switch fluorescence ratio of 0.969. Work on TGGCCTGAAC yielded a switch fluorescence ratio of 1.1. In the case of TGGCCTGGTG, the switch fluorescence ratio is reported as 1.45. With TGGCCTTCAA the switch fluorescence ratio was 0.943. TGGCGCTAGG gave a switch fluorescence ratio of 0.968. For TGGCGTAAGT, the switch fluorescence ratio was 1. In the case of TGGCGTAATC, the switch fluorescence ratio is reported as 1.17. TGGCTACGTG showed a switch fluorescence ratio of 0.979. TGGCTAGAAT gave a switch fluorescence ratio of 0.992. Sequence TGGCTAGGTG has a switch fluorescence ratio of 1.63. Work on TGGCTATTA yielded a switch fluorescence ratio of 1.07. TGGCTGATCT showed a switch fluorescence ratio of 0.995. In the case of TGGCTGTGGC, the switch fluorescence ratio is reported as 0.957. With TGGCTGTTAC the switch fluorescence ratio was 1.14. Work on TGGCTTACTG yielded a switch fluorescence ratio of 1.05. TGGCTTGGCA showed a switch fluorescence ratio of 1.02. TGGCTTTGAT gave a switch fluorescence ratio of 0.974. TGGGAAACGG was tested, and the switch fluorescence ratio was 1.09. Work on TGGGAATCAA yielded a switch fluorescence ratio of 0.971. Sequence TGGGACATAG has a switch fluorescence ratio of 1.01. For TGGGACCCAG, the switch fluorescence ratio was 0.989. In the case of TGGGACGGTT, the switch fluorescence ratio is reported as 0.973. In the case of TGGGACTCAG, the switch fluorescence ratio is reported as 0.978. TGGGACTTGA was tested, and the switch fluorescence ratio was 1.02. Work on TGGGAGGCTT yielded a switch fluorescence ratio of 1. TGGGAGGGG was tested, and the switch fluorescence ratio was 0.975. In the case of TGGGATGGCT, the switch fluorescence ratio is reported as 1.08. TGGGCAAAAC showed a switch fluorescence ratio of 0.954. TGGGCAAACC was tested, and the switch fluorescence ratio was 1.13. Sequence TGGGCATCGT has a switch fluorescence ratio of 0.979. Work on TGGGCCGATT yielded a switch fluorescence ratio of 0.994. For TGGGCTACCC, the switch fluorescence ratio was 1.01. With TGGGCTACGG the switch fluorescence ratio was 1.01. Sequence TGGGCTCAAT has a switch fluorescence ratio of 1. Work on TGGGCTCAGT yielded a switch fluorescence ratio of 0.994. In the case of TGGGGAAG, the switch fluorescence ratio is reported as 0.978. With TGGGGAAGCA the switch fluorescence ratio was 1.02. TGGGGACCTG gave a switch fluorescence ratio of 1. Sequence TGGGGATCCA has a switch fluorescence ratio of 0.964. TGGGGATG showed a switch fluorescence ratio of 0.974. TGGGGCAAGA gave a switch fluorescence ratio of 1.41. TGGGGCTCAT was tested, and the switch fluorescence ratio was 0.97. Sequence TGGGGGCCTC has a switch fluorescence ratio of 1.03. For TGGGGGGC, the switch fluorescence ratio was 0.966. Work on TGGGGGGTAC yielded a switch fluorescence ratio of 1.09. TGGGGGTACA was tested, and the switch fluorescence ratio was 1.01. TGGGGTGAAT gave a switch fluorescence ratio of 0.987. In the case of TGGGTAGACA, the switch fluorescence ratio is reported as 1. With TGGGTAGTCG the switch fluorescence ratio was 0.996. Work on TGGGTCAACA yielded a switch fluorescence ratio of 0.98. In the case of TGGGTCAAGT, the switch fluorescence ratio is reported as 0.989. Sequence TGGGTCGCCA has a switch fluorescence ratio of 1.01. Work on TGGGTGGAGT yielded a switch fluorescence ratio of 0.948. With TGGGTTCACC the switch fluorescence ratio was 0.968. For TGGGTTGCGG, the switch fluorescence ratio was 1. Work on TGGTAAAAAT yielded a switch fluorescence ratio of 0.948. TGGTAACCAG was tested, and the switch fluorescence ratio was 1.03. Sequence TGGTAACTGG has a switch fluorescence ratio of 1.04. For TGGTACGTTT, the switch fluorescence ratio was 0.962. TGGTAGCCTT showed a switch fluorescence ratio of 0.999. TGGTAGTAAA was tested, and the switch fluorescence ratio was 1. TGGTAGTCC showed a switch fluorescence ratio of 1.04. TGGTATAC showed a switch fluorescence ratio of 1.13. For TGGTATCTAG, the switch fluorescence ratio was 1.03. With TGGTCACATC the switch fluorescence ratio was 0.995. Work on TGGTCATAG yielded a switch fluorescence ratio of 1.03. TGGTCCTAAT showed a switch fluorescence ratio of 1. In the case of TGGTCCTGC, the switch fluorescence ratio is reported as 1.03. TGGTCCTGTG was tested, and the switch fluorescence ratio was 0.991. Work on TGGTCGCAA yielded a switch fluorescence ratio of 2.72. For TGGTCGCGAA, the switch fluorescence ratio was 1.01. TGGTCTCCGT gave a switch fluorescence ratio of 1.02. Sequence TGGTCTTTCA has a switch fluorescence ratio of 0.999. Work on TGGTGAAGG yielded a switch fluorescence ratio of 0.977. Sequence TGGTGACTGT has a switch fluorescence ratio of 1.02. With TGGTGAGACA the switch fluorescence ratio was 1.07. Work on TGGTGCAAGG yielded a switch fluorescence ratio of 1.01. For TGGTGGGGCC, the switch fluorescence ratio was 1.01. Sequence TGGTGGTGTT has a switch fluorescence ratio of 0.96.

— the supplement of paper PMC10126150
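Note: ATP exposure 15 min at 22 °C before imaging.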
